Test results published in PubChem BioAssay AID686970 (National Center for Advancing Translational Sciences (NCATS), 2013).
About 6,000 (1.7%) of roughly 360,000 compounds were called active. Inconclusive results, whose numbers are uncertain, are shown with a selection of clear calls. Calls follow the shape of the dose curve; as a rule, active = well fitted cell-killing curve with a large enough effect; inconclusive = small, poorly fitted or top-dose-only effect, or effect the other way; inactive = flat fitted curve, though single readings scatter. Potencies of inconclusive entries are left out as doubtful fits.

Assay: qHTS for induction of synthetic lethality in tumor cells producing 2HG: qHTS for the HT-1080-NT fibrosarcoma cell line;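 also: NT is the 2HG producing partner of a matched IDH1 knockdown line; nearly all actives have a fitted effect of over 55% in size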
Details: HT-1080-NT fibrosarcoma viability, CellTiter-Glo ATP luminescence, 48 h; series mostly up to 46.1 µM
Summary of the method: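 Read-out is CellTiter-Glo luminescence after 10 minutes at room temperature, following 48 hours' compound treatment of HT-1080-NT cells (750 cells/well, RPMI, 5% FBS, 37 degrees C).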
Potency is read from the fitted curve at half-maximal effect; tags tell the direction and shape of the fitted curve.

Row | SMILES | Potency
1 | Cc1ccccc1C(=O)NNC(=O)C1CC(=O)N(Cc2ccccc2)C1 (stereo unspecified) | inactive
2 | CC12COC3(C(=O)Nc4ccc([N+](=O)[O-])cc4)CC1CCC32C (stereo unspecified) | inactive
3 | Cc1cccc(C)c1-n1nnnc1C(c1cc2ccccc2o1)N1CCN(C/C=C/c2ccccc2)CC1 (stereo unspecified) | inconclusive [cytotoxic, partial curve]
4 | CN1Cc2c(N3CCOCC3)nc(SCc3ccccc3)c(C#N)c2CC1(C)C | inconclusive [cytotoxic, single point]
5 | CC1(Cc2ccccc2F)C(=O)Nc2c(Cl)ccc(Cl)c21 (stereo unspecified) | inconclusive [cytotoxic, single point]
6 | Cc1ccc(C(=O)n2c(-c3ccccc3)cnc2SCC(=O)Nc2ccccc2)cc1 | inactive
7 | C[C@@H]1CN([C@@H](C)CO)C(=O)c2cc(Br)cnc2O[C@@H]1CN(C)S(C)(=O)=O | inactive
8 | CCc1cc(C(=O)Nc2cc(S(=O)(=O)N3CCCCC3)ccc2N2CCN(C)CC2)sc1C | inconclusive [cytotoxic, partial curve]
9 | CC1=CN2C(=N)/C(=C/c3ccc(Sc4ccc(Cl)cc4)o3)C(=O)N=C2S1 | inconclusive [cytotoxic, single point]
10 | COc1ccc(CNC(=O)Nc2nc(C(N)Cc3ccc(F)cc3)cs2)cc1 (stereo unspecified) | inconclusive [cytotoxic, single point]
11 | CCCOc1ccccc1C(=O)NC(CO)C(=O)O (stereo unspecified) | inconclusive [rising, partial curve, poor fit]
12 | CCC(=O)c1ccccc1OCCSc1nc(C)cc(=O)[nH]1 | inactive
13 | CCOC(=O)c1sc2nc(CSc3ccccc3)nc(N3CCC(C(N)=O)CC3)c2c1C | inconclusive [cytotoxic, single point]
14 | CS(=O)(=O)N1CCN(C(=O)c2cc(-c3cccnc3)nc3ccc(Br)cc23)CC1 | inactive
15 | CCn1cc(Br)c(C(=O)Nc2ccc(Cl)cc2Cl)n1 | inactive
16 | CCc1ccc(C(=O)NNC(=O)c2ccc(=O)n(C)n2)cc1 | inactive
17 | COC(=O)c1[nH]c2ccc(Br)cc2c1NC(=O)C(C)N1CCN(C2CCCCC2)CC1 (stereo unspecified) | inconclusive [cytotoxic, single point]
18 | COCCCNC(=O)c1ccccc1N(Cc1ccccc1)S(=O)(=O)c1ccc(OC)cc1 | inconclusive [cytotoxic, single point]
19 | COc1cc(/C=C2/NC(=O)N(CC(=O)Nc3cccc(C)c3)C2=O)ccc1OCC(N)=O | inconclusive [cytotoxic, single point]
20 | COc1cccc(CN2C(=O)C(C)N(C(=O)c3c(F)cccc3F)c3ccccc32)c1 (stereo unspecified) | inconclusive [cytotoxic, partial curve, poor fit]
21 | O=C(c1ccc(Cn2cc(Cl)cn2)cc1)N1CCN(c2ccccc2)CC1 | inactive
22 | S=c1nc(NCCc2ccccc2Cl)c2ccccc2[nH]1 | inconclusive [cytotoxic, partial curve]

Row | SMILES | Potency
23 | CN(Cc1nccs1)C(=O)c1cc(COc2cccc3cnccc23)on1 | active: 23.1 µM
24 | COc1ccc(S(=O)(=O)Nc2ccc(C)cc2)cc1N(C)S(=O)(=O)c1ccc(Cl)cc1 | inconclusive [cytotoxic, single point]
25 | O=C(O)c1ccc(NC(=O)c2cn(-c3ccccc3)nc2-c2ccc(Cl)cc2)cc1 | active: 9.2 µM
26 | Cn1c(Cn2nnc3ccccc32)nnc1SCC(=O)N1c2ccccc2Sc2ccccc21 | inconclusive [cytotoxic, partial curve]
27 | CC1(Cc2cccc(C(F)(F)F)c2)C(=O)Nc2c(Cl)ccc(Cl)c21 (stereo unspecified) | inconclusive [cytotoxic, partial curve]
28 | C=CCCC(=O)Nc1nc(C)c(-c2csc(Nc3ccccc3OC)n2)s1 | inconclusive [cytotoxic, single point]
29 | CC1CCN(c2ccc(-c3cccc(NC(=O)c4ccco4)c3)nn2)CC1 | inconclusive [cytotoxic, single point]
30 | Cc1ccc(-c2cc(C(F)(F)F)n3nc(C(=O)N4CCN5CCCC5C4)cc3n2)cc1 (stereo unspecified) | inconclusive [cytotoxic, single point]
31 | O=C(C[C@H]1C[C@H](C(=O)N2CCCCC2)[C@@]2(CCc3ccccc3)c3[nH]c4ccc(Cl)cc4c3CCN2C1=O)NCCCn1ccnc1 | inconclusive [cytotoxic, single point]
32 | CCOc1ccc(/C=N/NC(=O)c2cc3c(OC)cc(OC)c(OC)c3[nH]2)cc1 | inconclusive [cytotoxic, single point]
33 | Fc1ccccc1N=C1NN=C(c2ccccc2)CS1 | active: 13 µM
34 | CN(C)c1ccc(-c2csc(C(O)c3ccc(F)c(F)c3)n2)cc1 (stereo unspecified) | inconclusive [cytotoxic, single point]
35 | COc1ccccc1-c1ccc2c(c1)C(C)(Cc1cc(Cl)ccc1C(F)(F)F)C(=O)N2 (stereo unspecified) | inconclusive [cytotoxic, single point]
36 | CCc1ccccc1NC(=O)c1ccc(CN2CCC(Cc3ccccc3)CC2)cc1 | active: 20.6 µM
37 | Cc1cc(C)cc(N2C(=O)C=CC2=O)c1 | inconclusive [cytotoxic, single point]
38 | COc1ccc(CN=C2NC(=O)CC(C(=O)Nc3ccc(Cl)cc3)S2)cc1 (stereo unspecified) | inconclusive [cytotoxic, partial curve]
39 | CCOc1ccccc1NC(=O)CSc1nc(N)c(C#N)cc1C#N | inconclusive [cytotoxic, single point]
40 | Cc1cccc(C)c1NC(=O)C1c2cccc[n+]2CC(=O)N1Cc1cccs1 (stereo unspecified) | inactive
41 | COCCCNC(=O)[C@H](CSCc1ccccc1)N1Cc2ccccc2C1=O | inactive
42 | CCOc1ccccc1NC(=S)N(Cc1cc2ccc(C)cc2[nH]c1=O)CC1CCCN1CC (stereo unspecified) | inconclusive [cytotoxic, single point]
43 | O=C(COC(=O)c1ccc2c(c1)S(=O)(=O)c1ccccc1C2=O)NC1CC1 | inactive
44 | CCc1ccc(C(=O)Nc2ccc(OC)c(S(=O)(=O)N3CCCCC3)c2)cc1 | inactive

Row | SMILES | Potency
45 | Cc1cc2nc(C3CCCCC3)c(Cc3ccccc3C(F)(F)F)n2c(C)c1Br | inactive
46 | CC1Cc2cc(S(=O)(=O)N3CCC(C(=O)Nc4ccccn4)CC3)ccc2N1C(=O)C1CCC1 (stereo unspecified) | inconclusive [cytotoxic, partial curve]
47 | COc1ccccc1N1CCN(c2ncnc3c2oc2ccccc23)CC1 | inconclusive [cytotoxic, full curve]
48 | C#CCn1c(=NC(=O)c2ccc(S(=O)(=O)N3CCc4ccccc4C3)cc2)sc2cc(S(N)(=O)=O)ccc21 | active: 5.17 µM
49 | CC(C)(C)NC(=O)C(CCc1ccccc1)n1c(=O)c(-c2ccccc2)nc2ccccc21 (stereo unspecified) | inconclusive [cytotoxic, single point]
50 | CC1=NN(C(=O)CSCc2ccccc2)C(O)(c2ccc(F)cc2)C1 (stereo unspecified) | inconclusive [cytotoxic, single point]
51 | O=c1oc2ccccc2n1Cc1cccc(Cl)c1 | inconclusive [rising, partial curve, poor fit]
52 | O=C(COc1ccc2c3c(c(=O)oc2c1)CCC3)NCc1ccncc1 | inconclusive [rising, partial curve, poor fit]
53 | Cc1[nH]c(C)c(C(=O)/C=C/c2ccc([N+](=O)[O-])cc2)c1C | inconclusive [cytotoxic, partial curve]
54 | CCCNC(=O)C1(C)CCN(Cc2cccc(OC(=O)c3ccccc3)c2)C1 (stereo unspecified) | inactive
55 | CN(CC(=O)Nc1ccc(Cl)c(C(F)(F)F)c1)C(=O)c1cc(=O)c2ccccc2o1 | inconclusive [cytotoxic, single point]
56 | CN(C(=O)CSc1nnc(-c2ccccc2F)o1)c1ccccc1 | inactive
57 | O=C(N/N=C/c1ccc(O)cc1O)NC12CC3CC(CC(C3)C1)C2 | inconclusive [cytotoxic, partial curve]
58 | CCN(CCCNC(=O)c1ccc2c(c1)NC(=O)CN2C)c1cccc(C)c1 | inconclusive [cytotoxic, single point]
59 | Cc1cc(O)c(-c2cc(C(=O)NCCc3ccc(S(N)(=O)=O)cc3)[nH]n2)cc1C | inconclusive [cytotoxic, full curve]
60 | O=C(O)c1ccccc1C(=O)Nc1ccccc1NC(=O)c1ccccc1C(=O)O | inconclusive [cytotoxic, partial curve]
61 | CC(=O)NS(=O)(=O)c1ccc(NC(=O)C(C)NS(=O)(=O)/C=C/c2ccccc2)cc1 (stereo unspecified) | inactive
62 | O=C(CCN1CCOCC1)c1ccc(Br)cc1 | inconclusive [cytotoxic, single point]
63 | O=C(Cc1ccc(Cl)c(Cl)c1)Nc1ccc(SC(F)F)cc1 | inconclusive [cytotoxic, single point]
64 | CCOC(=O)c1c(C)oc2ccc(NS(=O)(=O)c3ccc4c5c(cccc35)C(=O)N4)cc12 | inconclusive [cytotoxic, single point]
65 | CCc1cc2c(=O)n(Cc3ccco3)c(SCc3c(C)noc3C)nc2s1 | inconclusive [cytotoxic, single point]
66 | COc1ccc(CCNC(=O)Nc2nc(C(N)Cc3ccccc3)cs2)cc1OC (stereo unspecified) | inconclusive [cytotoxic, partial curve]
